Data taken from publication PMC4336329 (PLoS ONE, 2015).
Among all 310,000 compounds or so, about 2,200 (0.71%) showed an effect of 50% or more. Effects have a minus sign here. The list shows a part of the results.

molecular target: human ether-à-go-go-related gene (hERG) potassium channel (human, UniProt Q12809); experiment: primary screen, population patch clamp on CHO cells stably expressing hERG
Sequence (Q12809 whole entry, looked up): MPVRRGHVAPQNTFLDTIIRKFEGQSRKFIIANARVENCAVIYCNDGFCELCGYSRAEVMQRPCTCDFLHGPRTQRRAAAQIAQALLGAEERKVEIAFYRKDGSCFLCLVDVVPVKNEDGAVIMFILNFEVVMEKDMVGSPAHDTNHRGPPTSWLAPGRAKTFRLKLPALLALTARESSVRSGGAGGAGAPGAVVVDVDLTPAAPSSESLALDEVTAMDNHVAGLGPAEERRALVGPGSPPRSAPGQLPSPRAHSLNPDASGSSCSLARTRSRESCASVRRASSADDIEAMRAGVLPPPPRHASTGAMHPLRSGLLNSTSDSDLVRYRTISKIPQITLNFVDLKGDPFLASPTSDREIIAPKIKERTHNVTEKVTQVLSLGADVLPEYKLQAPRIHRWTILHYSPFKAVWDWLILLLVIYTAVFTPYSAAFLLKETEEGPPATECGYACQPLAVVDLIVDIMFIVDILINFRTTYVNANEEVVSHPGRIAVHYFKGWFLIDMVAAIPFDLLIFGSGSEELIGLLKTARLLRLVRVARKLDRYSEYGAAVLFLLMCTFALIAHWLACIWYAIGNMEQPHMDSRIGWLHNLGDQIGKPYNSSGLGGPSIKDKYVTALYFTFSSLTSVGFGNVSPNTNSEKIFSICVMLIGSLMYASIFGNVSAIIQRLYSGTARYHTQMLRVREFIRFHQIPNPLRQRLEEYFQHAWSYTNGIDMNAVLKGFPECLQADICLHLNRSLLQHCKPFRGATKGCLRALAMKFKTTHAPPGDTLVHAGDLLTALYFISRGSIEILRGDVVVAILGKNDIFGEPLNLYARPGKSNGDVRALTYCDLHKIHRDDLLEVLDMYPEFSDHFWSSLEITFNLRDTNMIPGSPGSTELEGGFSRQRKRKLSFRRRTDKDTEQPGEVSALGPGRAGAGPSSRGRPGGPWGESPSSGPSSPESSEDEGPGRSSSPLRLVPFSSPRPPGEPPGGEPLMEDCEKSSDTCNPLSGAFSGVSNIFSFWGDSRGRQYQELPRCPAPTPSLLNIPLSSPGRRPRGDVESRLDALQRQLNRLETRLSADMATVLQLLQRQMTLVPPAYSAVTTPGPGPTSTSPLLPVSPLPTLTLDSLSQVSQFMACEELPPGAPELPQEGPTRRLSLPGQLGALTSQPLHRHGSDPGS

| SMILES | hERG current change (%, negative = inhibition) at 1uM [%] |
| --- | --- |
| O=C(Nc1ccc(OC(F)(F)F)cc1)c1[nH]ncc1[N+](=O)[O-] | 6.28 |
| C=CCNC(=O)c1c(Cl)nc(C)c([N+](=O)[O-])c1C | 11.5 |
| COCCCNC(=O)C1CCC(=O)N1Cc1ccccc1Cl (stereo not drawn) | -0.356 |
| CCOc1ccc(/C=c2\sc3nc(-c4ccco4)nn3c2=O)cc1OCC | 9.88 |
| CCOC(=O)C1=NNC(C(=O)c2ccc(Cl)cc2)C1c1ccccc1 (stereo not drawn) | 5.78 |
| COc1ccc(N2CCN(C(c3ccc4ncccc4c3)c3nnnn3C(C)(C)C)CC2)cc1 (stereo not drawn) | -23.1 |
| CCN(C(=O)CCNC(=O)Cn1cnc2ccccc2c1=O)c1ccccc1F | 16.1 |
| COc1cccc(CNC(=O)CCC2CCCN(C(=O)CCc3c(C)noc3C)C2)c1 (stereo not drawn) | 6.27 |
| O=C1NCC(O)=C1C=Nc1ccccc1O | 10.6 |
| CCOc1ccc(Nc2ccnc3cc(Cl)ccc23)cc1 | 3.86 |
| CC(=O)N/C(=N/c1nc(C)cc(C)n1)Nc1ccc(F)cc1F | 12.7 |
| CCOC(=O)C1CCCN(C(=O)c2ccc(CNc3c(N4CCC(C)CC4)c(=O)c3=O)cc2)C1 (stereo not drawn) | 4.45 |
| C=C1CCN(c2ccc(C(=O)NCc3ccc(C)cc3)cc2[N+](=O)[O-])CC1 | 12.5 |
| CC(Oc1ccc2c(-c3ccccc3)cc(=O)oc2c1)C(=O)NCC1CCC(C(=O)O)CC1 (stereo not drawn) | 10.9 |
| CCCCNC1=NCCS1 | 3.41 |
| CC1=C(C(=O)N2CCC3(CC2)OCCO3)C2(CCC(C)CC2)OC1=O (stereo not drawn) | 4.83 |
| CCSCCNC(=O)c1cncc(Br)c1 | 9.46 |
| COc1ccc(/C=C2\SC(N3CCc4ccccc4C3)=NC2=O)cc1 | 8.49 |
| CCN(c1ccccc1)S(=O)(=O)c1ccc(Cl)c(NC(=O)CN2CCCCCC2)c1.O=C(O)C(=O)O | 11.2 |
| CN1CC(=O)N/C1=N\C(=O)Nc1ccc(O)cc1 | 16.6 |
| COc1cc(C(=S)N2CCCC2)ccc1OCC(N)=O | 17.2 |
| COC(=O)NC1c2ccccc2Oc2ccc(C)cc21 (stereo not drawn) | 10.1 |
| O=C1CCCC2=C1C(c1ccc(O)c(O)c1)Nc1ccc3ccccc3c12 (stereo not drawn) | 13.4 |

| SMILES | hERG current change (%, negative = inhibition) at 1uM [%] |
| --- | --- |
| CC1=C(C(=O)Nc2ccccc2)C2(CCCCC2)C(C#N)=C(SCC(N)=O)N1 | 11.7 |
| Cc1cc(C(F)F)n2ncc(C(=O)N3CCCCC3)c2n1 | 13.9 |
| Cc1noc(C)c1COc1ccc(C(=O)Nc2ccccn2)cc1 | 7.52 |
| COc1ccc(CNC(=O)Cc2cccs2)cc1OC | 9.49 |
| CCOC(=O)c1c(NC(=O)CSC2=NN3CCCC(=O)N=C3S2)sc2c1CCCCC2 | 12.7 |
| Cc1c(C(=O)N(Cc2ccccc2)C(C)C)cnn1-c1ccccc1 | 3.33 |
| COc1ccc(S(=O)(=O)NCC2CCCN(C(=O)c3ccccc3)C2)cc1 (stereo not drawn) | 18 |
| COc1ccc(NC(=S)NC(=O)c2ccccc2Cl)cc1 | 0.375 |
| O=C(Nc1cccnc1)c1ccccc1F | 10.7 |
| COc1ccccc1/C=C/C(=O)Nc1ccc2c(c1)OCCO2 | 11.2 |
| COc1ccc(C(=O)COC(=O)c2sc(C)nc2C)cc1OC | 12.7 |
| CN1C(=O)C2(C(C#N)=C(N)Oc3n[nH]c(-c4ccc(Cl)cc4)c32)c2ccccc21 (stereo not drawn) | 13.5 |
| CCn1c(CS(=O)Cc2ccc(Cl)cc2Cl)nnc1SCc1c(Cl)cccc1Cl (stereo not drawn) | 3.44 |
| Cc1c(C(=O)NNc2cc(=O)n(C)c(=O)n2C)cccc1[N+](=O)[O-] | 14.4 |
| CCOC(=O)N/N=C/c1cc(OC)c(O)c(OC)c1 | 21 |
| CCOC(=O)c1cc2sccc2n1CC(=O)Nc1ccc(OC)c(OC)c1 | 9.3 |
| CN(C)/C=N/C(=S)Nc1ccc(Cl)cc1Cl | 10.1 |
| CN(C)c1ccc(NC(=O)C[n+]2ccccc2)cc1.[Cl-] | 16.1 |
| Cc1ccccc1CN1CCC(n2nccc2NC(=O)c2cccnc2)CC1 | 4.68 |
| CCN(CC)c1ccc(C(=O)OCC(=O)Nc2cc(C)on2)cc1 | 8.47 |
| Cc1ccc(S(=O)(=O)NCC(c2ccccc2)N2CCCCC2)cc1 (stereo not drawn) | 7.82 |
| CN1/C(=C\C(=O)c2cccs2)Sc2ccccc21 | 13.8 |
| COCCCN(C(=S)NC(=O)C12CC3CC(CC(C3)C1)C2)c1c(N)n(Cc2ccccc2)c(=O)[nH]c1=O | 13.8 |

| SMILES | hERG current change (%, negative = inhibition) at 1uM [%] |
| --- | --- |
| COc1c(C)cc(C(=O)C2CCCN(C(=O)Cn3nc(C)nc3C)C2)cc1C (stereo not drawn) | 8.01 |
| Cc1sc(NC(=O)C2CCCC2)c(C#N)c1C | 17.8 |
| Cn1cc(C(=O)NCc2ccc(F)cc2)c(=O)c2cc(S(=O)(=O)N3CCCCC3)ccc21 | 3.42 |
| CCCc1c(O)nc(SC2CC(=O)N(c3cc(OC)ccc3OC)C2=O)[nH]c1=O (stereo not drawn) | 3.88 |
| COc1cc(CNC23CC4CC(CC(C4)C2)C3)ccc1OCc1ccccc1.Cl | 1.77 |
| CC(=O)Oc1ccc(N2C(=O)C3C(C2=O)C2(C)C=CC3(C)O2)cc1 (stereo not drawn) | 0.436 |
| COc1ccccc1/C=C1\SC(=O)N(CC(=O)N(C)C2CCS(=O)(=O)C2)C1=O (stereo not drawn) | 28.8 |
| CC(/C=N/n1c(-c2ccco2)n[nH]c1=S)=C\c1ccco1 | 13.9 |
| CC1c2[nH]c3ccccc3c2CCN1C(=O)Nc1ccccc1 (stereo not drawn) | -2.19 |
| Cc1cccc(NC(=O)Cn2cnc3c(oc4ccccc43)c2=O)c1 | 10.5 |
| CCOc1ccccc1NC(=O)c1nnn(CC(=O)Nc2ccc3c(c2)OCO3)c1N | 11.6 |
| COc1ccccc1S(=O)(=O)Cc1ccc(C(=O)NCc2ccco2)o1 | -0.9 |
| Cc1cccnc1NC(=O)c1ccc2c(c1)NC(=O)C(C)S2 (stereo not drawn) | -6.53 |
| COC(=O)c1cc(C(=O)N(Cc2ccccc2)c2ccccn2)cc([N+](=O)[O-])c1 | -10.1 |
| CC(C)OCCCNc1nc2c([nH]1)c(=O)n(C)c(=O)n2C | 6 |
| Cc1ccccc1NS(=O)(=O)c1ccc(C2CNC(=O)C2)cc1 (stereo not drawn) | 10.3 |
| Cc1ccccc1NC(c1cccc(Cl)c1)c1nnnn1C1CCCCC1 (stereo not drawn) | 10 |
| CC1=C(C(=O)NCc2ccco2)C2(CCC(C)CC2)OC1=O (stereo not drawn) | 15.6 |
| CC(=O)c1ccc(NC(=O)c2cc(S(=O)(=O)N3CCOCC3)ccc2C)cc1 | 12.6 |
| COCCN(C(=O)Cn1nnc2ccccc21)C(C(=O)NC1CCCCC1)c1ccc(OC)cc1OC (stereo not drawn) | 9.29 |
| CC1=NN(C(=O)c2ccc(Cn3cc([N+](=O)[O-])cn3)cc2)C(O)(C(F)(F)F)C1 (stereo not drawn) | -1.45 |
| Cc1ccc2ccccc2c1Cn1c(-n2ccnc2)nc2c1c(=O)n(C)c(=O)n2C | 8.35 |
| O=S(=O)(Nc1ccc(O)c2ccccc12)c1ccc(Br)cc1 | 8.2 |

| SMILES | hERG current change (%, negative = inhibition) at 1uM [%] |
| --- | --- |
| CC1=C(C(=O)Nc2ccccc2C(=O)NC2CCC(C)CC2)SCCO1 (stereo not drawn) | 14.6 |
| O=C(CNC(=O)c1cc2c(n(-c3ccccc3)c1=O)CCCC2=O)c1ccccc1 | 10.9 |
| Cc1ccc(CNC(=O)CCCN2C(=S)NC(C)(C)CC2C)cc1 (stereo not drawn) | 4.11 |
| CCO/C([O-])=N/c1sn[n+](C)c1C | 7.98 |
| Cc1c(O)c(CN2CCCCC2)cc2c3c(c(=O)oc12)CCC3 | 4.76 |
| O=C(O)c1ccccc1-c1nc2ccccc2c(=O)[nH]1 | 4.68 |
| CN(CC(=O)Nc1cccc(F)c1)C(=O)Cc1n[nH]c(=O)c2ccccc12 | 14.1 |
| CC[C@H](CO)NCCN[C@H](CC)CO.Cl | 15.6 |
| COc1cc(OC)cc(C(=O)NCCCN2CCOCC2)c1 | 9.25 |
| CC(C)(C)NC(=O)Cn1nnc(-c2ccccc2NC(=O)c2ccco2)n1 | 8.52 |
| Cc1c(C)n(C(=O)CSc2nccn2C)c2ccccc12 | 0.119 |
| Cc1ccc(NC(=O)COC(=O)CN2C(=O)NC3(CCCC3)C2=O)cc1F | 13.6 |
| C=CCSc1nnc2c(n1)OC(c1ccco1)Nc1ccccc1-2 (stereo not drawn) | 10.6 |
| Cc1cc(C)cc(NC(=S)N2CCN(c3ccc(F)cc3)CC2)c1 | -0.227 |
| COc1cc(CN2CCC(N3CCC(C(=O)N4CCCC4)CC3)CC2)cc2c1OCO2 | -1.93 |
| Cc1ccc(-c2nc(N=Nc3ccc(O)cc3)n[nH]2)cc1 | 10.3 |
| CCC(=O)N1CCN(c2nc(C)nc3sc(C)c(C)c23)CC1 | -54 |
| COc1ccccc1OCCNC(=O)C(CCSC)NS(=O)(=O)c1ccccc1F (stereo not drawn) | -3.2 |
| COCCNC(=O)C(c1ccccc1C)N(CCOC)C(=O)Cn1nnc2ccccc21 (stereo not drawn) | 5.21 |
| O=C(Nc1ccc(N2CCCC2)c(Cl)c1)c1cccs1 | 20.5 |
| COc1cc(NC(=O)c2cccs2)c(C(=O)OCC(=O)c2cc(C)n(-c3ccc(F)cc3)c2C)cc1OC | 10.1 |
